The values below come from the BET-seq Pho4 binding data (Le et al. 2018).

Some of the results follow. These are noisy estimates, calculated here from bound and input reads.

The target of this assay is T1, Pho4 (S. cerevisiae) (UniProt P07270).
T1 sequence: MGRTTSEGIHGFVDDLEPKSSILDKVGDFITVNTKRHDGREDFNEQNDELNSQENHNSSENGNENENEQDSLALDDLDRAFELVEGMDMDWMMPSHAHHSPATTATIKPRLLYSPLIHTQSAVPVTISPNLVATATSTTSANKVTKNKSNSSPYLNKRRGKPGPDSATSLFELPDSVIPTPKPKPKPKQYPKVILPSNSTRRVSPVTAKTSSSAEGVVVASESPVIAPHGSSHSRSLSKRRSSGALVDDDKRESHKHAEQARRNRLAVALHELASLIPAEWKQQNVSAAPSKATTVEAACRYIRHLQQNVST
The assay can be described thus: relative binding free energy (BET-seq); higher = weaker binding. As to conditions: reference: library average.
On to ATGGCCACGTGGCGTT, for which the “relative binding free energy” value is -1.13 kJ/mol.
As for TGTGTCACGTGTGTCT, the figure is 0.586 kJ/mol; as for TGAATCACGTGATTTA, 1.05 kJ/mol; as for AGGCTCACGTGTAATT, 1.42 kJ/mol.
To CAAGTCACGTGTCGTG belongs 0.92 kJ/mol; to AGGTGCACGTGTTTGC, 0.251 kJ/mol; to TGGTACACGTGGCGGT, 0.209 kJ/mol.
For the sequence ATGGGCACGTGGATAG, the “relative binding free energy” value is -0.879 kJ/mol.
For TGGCGCACGTGCGTTG, the “relative binding free energy” value is -1.17 kJ/mol.
In the case of TATGTCACGTGTTGCT, the “relative binding free energy” value amounted to 0.209 kJ/mol.
In the case of ATGAGCACGTGTATTT, the “relative binding free energy” value was -1 kJ/mol.
With CTTGACACGTGGGATT, the “relative binding free energy” value stood at 0.126 kJ/mol.
As for TGGTGCACGTGTCGAA, the figure is -0.418 kJ/mol; as for ATAGGCACGTGTAGGT, -0.502 kJ/mol; as for CATTTCACGTGAATTG, 1.46 kJ/mol.
As for GGTGGCACGTGCGTAG, the figure is -0.126 kJ/mol; as for GCGGGCACGTGGTGAC, -0.46 kJ/mol.
As for TTGCACACGTGTTAGG, the figure is 0.126 kJ/mol.
Consider AGGAACACGTGAGGTG, for which the “relative binding free energy” value worked out at 1 kJ/mol.
As for TTTATCACGTGAGTAT, the figure is 1.67 kJ/mol.
To GTGGGCACGTGCTCTG belongs -1 kJ/mol; to AGTTACACGTGGGGGA, -0.335 kJ/mol; to GAGTGCACGTGGGCGA, -0.879 kJ/mol.
To TAGGACACGTGCTGTG belongs -0.0418 kJ/mol; to AGATACACGTGTATTT, -0.251 kJ/mol.
Turning to TTTTTCACGTGAAGCG, the “relative binding free energy” value worked out at 1.38 kJ/mol.
For TATAGCACGTGGCGAG, the “relative binding free energy” value is -0.753 kJ/mol.
To CGTATCACGTGAAATG belongs 1.8 kJ/mol; to TCTATCACGTGGTTTA, 0.879 kJ/mol; to TTCTGCACGTGTGATT, 0.0837 kJ/mol.
To TATGACACGTGTTATG belongs 0.795 kJ/mol.
As for ATTTTCACGTGAGGTT, the figure is 1.51 kJ/mol; as for GGTATCACGTGGAATG, 1.26 kJ/mol.
In the case of CTGGGCACGTGTGGAC, the “relative binding free energy” value amounted to 0.251 kJ/mol.
As for AATTACACGTGTGTAG, the figure is 0.251 kJ/mol; as for AATGACACGTGGTGCG, -0.377 kJ/mol.
As for TGGGCCACGTGGTCTG, the “relative binding free energy” value was -0.837 kJ/mol.
On to CGTGGCACGTGTTTCT, for which the “relative binding free energy” value was 0.0837 kJ/mol.
To AGTATCACGTGATTGT belongs 1.3 kJ/mol; to ATTGTCACGTGTGGGT, 0.628 kJ/mol.
To TTAGGCACGTGATGTT belongs -0.126 kJ/mol.
For the sequence GTGTCCACGTGAAGTG, the “relative binding free energy” value was found to be 1.17 kJ/mol.
In the case of GTTGGCACGTGCTGGC, the “relative binding free energy” value is -0.669 kJ/mol.
As for AGGGGCACGTGTACAT, the figure is -0.753 kJ/mol; as for ATATGCACGTGTGTGG, -0.0837 kJ/mol.
As for AGGGTCACGTGCAGTT, the figure is 0.209 kJ/mol.
Take CGGGGCACGTGAGGTC: the “relative binding free energy” value came to 0.669 kJ/mol.
To AGGTTCACGTGGGTTT belongs 1.21 kJ/mol; to AATTGCACGTGTTTTA, 0.126 kJ/mol.
Turning to GTGGACACGTGAGTCG, the “relative binding free energy” value stood at 0.293 kJ/mol.
Consider CGATGCACGTGGGTGC, for which the “relative binding free energy” value is -0.46 kJ/mol.
In the case of GTAGGCACGTGATGCG, the “relative binding free energy” value is -0.126 kJ/mol.
Take TTTGTCACGTGCTTGC: the “relative binding free energy” value is 0.167 kJ/mol.
As for ATATTCACGTGGAGTG, the figure is 1.09 kJ/mol; as for TCTTGCACGTGTAAGT, 0.126 kJ/mol.
Regarding TTGCGCACGTGGGAGA, the “relative binding free energy” value was -0.962 kJ/mol.
To TGAGTCACGTGCAAGT belongs 0.711 kJ/mol; to GATCGCACGTGTGTTG, 0.586 kJ/mol; to GTCACCACGTGTTGGG, 0.293 kJ/mol.
As for ATGGTCACGTGTGGGG, the figure is 0.837 kJ/mol; as for TGGTTCACGTGAGCTT, 2.01 kJ/mol; as for GCATGCACGTGTGGGA, 0 kJ/mol.
To TTTTTCACGTGCATAG belongs 0.711 kJ/mol.
Regarding TATATCACGTGCGAGG, the “relative binding free energy” value stood at 0.586 kJ/mol.
As for GGTATCACGTGGTAGC, the “relative binding free energy” value came to 0.628 kJ/mol.
For TAGGGCACGTGTAGCG, the “relative binding free energy” value amounted to 0.418 kJ/mol.
As for ATCTGCACGTGGTGTG, the figure is -0.628 kJ/mol; as for TTCATCACGTGTGGCT, 0.418 kJ/mol.
To GTAGACACGTGGCCGT belongs 0.251 kJ/mol.
Take AATTTCACGTGGGTGA: the “relative binding free energy” value worked out at 0.46 kJ/mol.
To AGGCACACGTGAGGGA belongs 1.63 kJ/mol.
For the sequence GGTGTCACGTGTGGCT, the “relative binding free energy” value was found to be 0.711 kJ/mol.
Regarding ATGTGCACGTGCTGTC, the “relative binding free energy” value amounted to 0.167 kJ/mol.
Take GAATACACGTGTTGGA: the “relative binding free energy” value was 1.09 kJ/mol.
As for GGTGTCACGTGACGTT, the figure is 0.795 kJ/mol.
For the sequence TCATACACGTGTTGTT, the “relative binding free energy” value was -0.0837 kJ/mol.
In the case of TTGTCCACGTGTTAAG, the “relative binding free energy” value came out at 0.209 kJ/mol.
As for GGTTCCACGTGCAGGG, the figure is 0.502 kJ/mol.
To AGTAACACGTGGTTAT belongs -0.502 kJ/mol.
Take TATGTCACGTGGAGAG: the “relative binding free energy” value amounted to 0.0418 kJ/mol.
To AGTGACACGTGTAAGA belongs 0.795 kJ/mol; to TGTTCCACGTGGAAGG, 0 kJ/mol; to TGGTACACGTGCGGGC, 0.335 kJ/mol.
In the case of TGAGCCACGTGTTGAT, the “relative binding free energy” value came out at 0.126 kJ/mol.
To GTTATCACGTGGGACG belongs 0.0418 kJ/mol; to CTACGCACGTGGGGTA, -1.05 kJ/mol; to TGATGCACGTGGCTAT, -0.209 kJ/mol.
Take CAGGGCACGTGGGGAG: the “relative binding free energy” value is -1.05 kJ/mol.
As for TTGTTCACGTGCGGAC, the “relative binding free energy” value came to 1.88 kJ/mol.
As for TTGTCCACGTGAATTG, the figure is 1.34 kJ/mol; as for GAAAGCACGTGGTTTT, -0.0837 kJ/mol.
Consider GTAGTCACGTGTAGCT, for which the “relative binding free energy” value was found to be 1.05 kJ/mol.
As for TGGCGCACGTGGATGC, the figure is -0.167 kJ/mol; as for TGTTGCACGTGTAAGA, -0.0837 kJ/mol.
TAGTGCACGTGCGATT: the “relative binding free energy” value was -0.0837 kJ/mol.
As for CGGCTCACGTGTTGTA, the figure is 1.26 kJ/mol.
To TGTTGCACGTGCAGTT belongs -0.0837 kJ/mol.
In the case of GGTTGCACGTGGGCTG, the “relative binding free energy” value was -0.669 kJ/mol.
For the sequence GTACTCACGTGTGATG, the “relative binding free energy” value is 0.586 kJ/mol.
For the sequence CCGGTCACGTGTAGGG, the “relative binding free energy” value amounted to 0.209 kJ/mol.
As for AATTTCACGTGTATGT, the “relative binding free energy” value came out at 0.711 kJ/mol.
To ACGTTCACGTGGAGGT belongs 0.126 kJ/mol.
In the case of GCGGACACGTGAGTAG, the “relative binding free energy” value came to 1.72 kJ/mol.
To GTCGTCACGTGTGGTG belongs 0.628 kJ/mol; to CGTGGCACGTGAGGTG, 0.418 kJ/mol.
To GGATGCACGTGAGAGG belongs 0.879 kJ/mol; to CAGTTCACGTGTTTAT, 0.711 kJ/mol.
Regarding CCAGGCACGTGGAGGG, the “relative binding free energy” value was -0.753 kJ/mol.
For TTTTTCACGTGCAGGT, the “relative binding free energy” value was 1.26 kJ/mol.
AGGAACACGTGCAGGA: the “relative binding free energy” value was determined as 1.05 kJ/mol.
Consider TTAAGCACGTGATAGA, for which the “relative binding free energy” value came out at 0 kJ/mol.
To AATCGCACGTGGGTTT belongs -0.418 kJ/mol.
Take AAACGCACGTGTTGTG: the “relative binding free energy” value was -0.167 kJ/mol.
With GGTAACACGTGCAGGG, the “relative binding free energy” value is -0.167 kJ/mol.
To TAATTCACGTGCGATG belongs 1 kJ/mol.
To GTCCGCACGTGATTGT belongs 0.795 kJ/mol; to GAGGTCACGTGCGTAG, 0 kJ/mol; to AGTAACACGTGTATTT, -0.46 kJ/mol.
As for ATTATCACGTGTTAAA, the figure is 0.837 kJ/mol.
Turning to TAGTACACGTGATTTT, the “relative binding free energy” value amounted to 0.795 kJ/mol.
TGGAGCACGTGGGTAG: the “relative binding free energy” value is -0.753 kJ/mol.
As for AATAGCACGTGTATTA, the figure is -0.209 kJ/mol; as for GAGGGCACGTGACGCG, 0.502 kJ/mol; as for CTTGGCACGTGTTTTG, -0.335 kJ/mol.
Turning to CATTTCACGTGCGGTT, the “relative binding free energy” value amounted to 0.962 kJ/mol.
On to TGGTGCACGTGGTGTT, for which the “relative binding free energy” value was -0.418 kJ/mol.
As for GCCTTCACGTGGGTGG, the “relative binding free energy” value worked out at 0.962 kJ/mol.
To CTTGTCACGTGGCGTG belongs 0.251 kJ/mol; to TTTCTCACGTGGGTCT, 0.711 kJ/mol.
As for GGGGTCACGTGGTGTC, the figure is 0.293 kJ/mol; as for TTATGCACGTGGTGCA, -0.46 kJ/mol; as for ACGGTCACGTGTAATG, 0.377 kJ/mol.
As for CTGGGCACGTGTCGTG, the figure is 0.0418 kJ/mol; as for ATCGTCACGTGAGTTG, 0.418 kJ/mol; as for CGAAGCACGTGGTGTT, -0.669 kJ/mol.
On to TTGATCACGTGCTGGG, for which the “relative binding free energy” value is -0.126 kJ/mol.
As for CTATGCACGTGGAAGT, the figure is 0.209 kJ/mol; as for GTATCCACGTGCGGGG, 0.0418 kJ/mol.
To TGGAGCACGTGGAATA belongs 0 kJ/mol; to TGATTCACGTGGTGGC, 0.711 kJ/mol.
For the sequence CTCTGCACGTGTGGGG, the “relative binding free energy” value was -0.0418 kJ/mol.
As for TTGGGCACGTGCGGTT, the figure is -0.586 kJ/mol; as for CGGGGCACGTGTTTGC, -0.879 kJ/mol; as for TAATTCACGTGGCGTG, 0.46 kJ/mol.
Take GAGAGCACGTGAGTAG: the “relative binding free energy” value is 0.92 kJ/mol.
In the case of ATCAGCACGTGGGGGC, the “relative binding free energy” value was -0.586 kJ/mol.
